One experiment deals with HSkMC. Kind of experiment: cytotoxicity call (relative viability < 0.9). The conditions noted are these: 10 µM.
A further experiment deals with HepG2. The experiment in a line: cytotoxicity call (relative viability < 0.9). The following applies: 10 µM.
The next experiment has as its system S. aureus RN4220. Kind of experiment: growth inhibition call (relative growth <= 0.2). The conditions noted are these: 50 µM.

Drawing on the antibiotic and cytotoxicity screens of Wong et al. (2023), this text covers cytotoxicity call and growth inhibition call for 28 compounds.

SMILES strings stand for the structures. This is one part of the list.

Regarding `Cc1cccc(S(=O)(=O)N2C[C@@H](O)COC[C@H]3O[C@H](CC(=O)NCCCN4CCOCC4)CC[C@@H]32)c1`, the cytotoxicity call in the experiment on HSkMC and in the experiment on HepG2 was “inactive” throughout. The growth inhibition call with S. aureus RN4220 is “inactive”.

As for `C[C@H]1CN([C@@H](C)CO)S(=O)(=O)c2ccc(-c3cncnc3)cc2O[C@@H]1CN(C)C(=O)Cc1ccncc1`, the cytotoxicity call with HSkMC and in the experiment with HepG2 was “inactive” in each case. Besides, the growth inhibition call with S. aureus RN4220 was “inactive”.

Take `C[C@@H]1CN([C@H](C)CO)C(=O)CCCn2cc(nn2)CO[C@@H]1CN(C)C(=O)Nc1ccc2c(c1)OCO2`: the cytotoxicity call with HSkMC and with HepG2 was “inactive” each time. In addition, the growth inhibition call in the experiment on S. aureus RN4220 was “inactive”.

In the case of `CO[C@H]1CN(C)C(=O)c2cc(NC(=O)Nc3ccc(Cl)cc3)ccc2OC[C@@H](C)N(C(=O)Nc2c(C)noc2C)C[C@H]1C`, the cytotoxicity call in the experiment on HSkMC and in the experiment with HepG2 was “inactive” in each case. Moreover, in the experiment on S. aureus RN4220, the growth inhibition call was “inactive”.

With `C[C@H]1CN([C@@H](C)CO)S(=O)(=O)c2ccc(C#CC(C)(C)O)cc2O[C@H]1CN(C)C(=O)CN(C)C`, the cytotoxicity call in the experiment with HSkMC and in the experiment with HepG2 was “inactive” in each case. The growth inhibition call in the experiment on S. aureus RN4220 is “inactive”.

Regarding `COc1ccccc1-c1ccc2c(c1)O[C@@H](CN(C)C(=O)c1cccnc1)[C@@H](C)CN([C@@H](C)CO)S2(=O)=O`, the cytotoxicity call with HSkMC and with HepG2 was “inactive” throughout. Also, the growth inhibition call in the experiment on S. aureus RN4220 is “inactive”.

Consider `C[C@@H]1CCCCO[C@H](CN(C)S(=O)(=O)c2cccs2)[C@H](C)CN([C@@H](C)CO)C(=O)c2cc(NC(=O)Cc3ccccc3)ccc2O1`, for which the cytotoxicity call in the experiment with HSkMC and in the experiment with HepG2 was “inactive” throughout. In addition, the growth inhibition call in the experiment with S. aureus RN4220 is “inactive”.

In the case of `O=C(Nc1cccc2cccnc12)[C@@H]1[C@H](c2ccc3ccccc3c2)CC(=O)N1C(=O)OCc1ccccc1`, the cytotoxicity call in the experiment with HSkMC and in the experiment with HepG2 was “inactive” throughout. In addition, the growth inhibition call with S. aureus RN4220 was “inactive”.

On to `COc1ccc(C#Cc2ccc3c(c2)O[C@H](CN(C)C(C)=O)[C@@H](C)CN([C@H](C)CO)S3(=O)=O)cc1`, for which the cytotoxicity call in the experiment on HSkMC and in the experiment with HepG2 was “inactive” in each case. Further, in the experiment with S. aureus RN4220, the growth inhibition call is “inactive”.

Consider `C[C@H](CO)N1C[C@H](C)[C@@H](CN(C)C(=O)Nc2ccc(F)cc2)Oc2ccc(NC(=O)Nc3ccc(C(F)(F)F)cc3)cc2C1=O`, for which the cytotoxicity call in the experiment on HSkMC and with HepG2 was “inactive” in each case. For the same compound, the growth inhibition call with S. aureus RN4220 was “inactive”.

For `C[C@@H]1CN([C@H](C)CO)C(=O)c2cc(NS(=O)(=O)c3ccc(Cl)cc3)ccc2O[C@H]1CN(C)Cc1ccc(Cl)c(Cl)c1`, the cytotoxicity call in the experiment with HSkMC and in the experiment with HepG2 was “inactive” in each case. Further, the growth inhibition call with S. aureus RN4220 is “inactive”.

`COc1ccccc1C#Cc1cnc2c(c1)C(=O)N([C@@H](C)CO)C[C@@H](C)[C@@H](CN(C)C(=O)CN(C)C)O2`: the cytotoxicity call with HSkMC and in the experiment on HepG2 was “inactive” throughout. Moreover, the growth inhibition call in the experiment with S. aureus RN4220 was “inactive”.

As for `CN(C)C(=O)C[C@@H]1CC[C@@H]2[C@H](COc3ccc(NS(=O)(=O)c4cccc(F)c4)cc3C(=O)N2C)O1`, the cytotoxicity call with HSkMC and in the experiment on HepG2 was “inactive” in each case. For the same compound, the growth inhibition call in the experiment with S. aureus RN4220 is “inactive”.

Take `Cc1noc(C)c1NC(=O)N(C)C[C@H]1Oc2ccc(NS(=O)(=O)c3ccccc3)cc2CC(=O)N([C@H](C)CO)C[C@@H]1C`: the cytotoxicity call with HSkMC and with HepG2 was “inactive” throughout. For the same compound, in the experiment on S. aureus RN4220, the growth inhibition call was “inactive”.

On to `Cn1cnc(S(=O)(=O)N2C[C@@H](O)COC[C@H]3O[C@@H](CC(=O)N4CCN(c5ccccc5)CC4)CC[C@@H]32)c1`, for which the cytotoxicity call in the experiment on HSkMC and in the experiment with HepG2 was “inactive” throughout. Moreover, the growth inhibition call in the experiment on S. aureus RN4220 is “inactive”.

With `COc1ccc(CN(C)C[C@@H]2OCCCC[C@H](C)Oc3ccc(NC(=O)Nc4cccc5ccccc45)cc3C(=O)N([C@@H](C)CO)C[C@H]2C)cc1`, the cytotoxicity call in the experiment on HSkMC and in the experiment with HepG2 was “active” throughout. Further, in the experiment on S. aureus RN4220, the growth inhibition call was “inactive”.

For `C[C@@H]1CCCCO[C@@H](CN(C)C(=O)C2CCCCC2)[C@H](C)CN([C@@H](C)CO)C(=O)c2cc(NC(=O)CCCCCC(=O)Nc3ccccc3N)ccc2O1`, the cytotoxicity call in the experiment on HSkMC and in the experiment with HepG2 was “inactive” in each case. Besides, the growth inhibition call in the experiment with S. aureus RN4220 is “inactive”.

`CN1CCN(C(=O)C[C@H]2CC[C@@H]3[C@H](COC[C@H](O)CN3C(=O)Nc3ccc4c(c3)OCO4)O2)CC1`: the cytotoxicity call in the experiment on HSkMC and with HepG2 was “inactive” in each case. Moreover, the growth inhibition call in the experiment with S. aureus RN4220 was “inactive”.

For `NC(=S)NCc1ccco1`, the cytotoxicity call in the experiment with HSkMC and with HepG2 was “inactive” each time. The growth inhibition call in the experiment on S. aureus RN4220 was “inactive”.

In the case of `CO[C@@H]1CN(C)C(=O)c2cc(NC(=O)C3CCOCC3)ccc2OC[C@@H](C)N(CC2CCOCC2)C[C@H]1C`, the cytotoxicity call with HSkMC and in the experiment on HepG2 was “inactive” in each case. Also, the growth inhibition call with S. aureus RN4220 was “inactive”.

Regarding `CC(=O)N1CCC[C@H]1C(=O)O`, the cytotoxicity call with HSkMC and with HepG2 was “inactive” each time. The growth inhibition call in the experiment with S. aureus RN4220 was “inactive”.

Take `COc1ccccc1NC(=O)N(C)C[C@@H]1Oc2cc(Br)ccc2S(=O)(=O)N([C@H](C)CO)C[C@H]1C`: the cytotoxicity call in the experiment with HSkMC and in the experiment with HepG2 was “inactive” each time. In the experiment with S. aureus RN4220, the growth inhibition call was “inactive”.

Consider `C[C@H](CO)N1C[C@H](C)[C@H](CN(C)Cc2ccccc2)Oc2c(NC(=O)C3CCOCC3)cccc2C1=O`, for which the cytotoxicity call with HSkMC and with HepG2 was “inactive” each time. Further, in the experiment with S. aureus RN4220, the growth inhibition call was “inactive”.

Consider `C[C@@H]1CN([C@H](C)CO)S(=O)(=O)c2ccc(C#Cc3ccccc3)cc2O[C@H]1CN(C)C(=O)CN(C)C`, for which the cytotoxicity call with HSkMC is “inactive”. The cytotoxicity call in the experiment with HepG2 is “active”. The growth inhibition call in the experiment on S. aureus RN4220 is “inactive”.

For the compound `Cn1cnc([N+](=O)[O-])c1Sc1[nH]cnc2ncnc1-2`, in the experiment on HSkMC, the cytotoxicity call is “inactive”. For the same compound, the cytotoxicity call in the experiment on HepG2 is “active”. For the same compound, in the experiment with S. aureus RN4220, the growth inhibition call was “inactive”.

As to `Cc1ccc(S(=O)(=O)N(C)C[C@H]2OCCCC[C@H](C)Oc3ccc(NS(C)(=O)=O)cc3C(=O)N([C@H](C)CO)C[C@H]2C)cc1`, the cytotoxicity call with HSkMC and with HepG2 was “inactive” each time. In the experiment on S. aureus RN4220, the growth inhibition call was “inactive”.

For the compound `C[C@H](CO)N1C[C@H](C)[C@H](CN(C)Cc2ccc(-c3ccccc3)cc2)Oc2ccc(NS(=O)(=O)c3ccc(Cl)cc3)cc2CC1=O`, the cytotoxicity call in the experiment on HSkMC (human skeletal muscle cells) and with HepG2 was “inactive” each time. For the same compound, in the experiment with S. aureus RN4220, the growth inhibition call is “inactive”.

In the case of `O=C(C[C@@H]1CC[C@H]2[C@@H](COC[C@@H](O)CN2C(=O)c2ccncc2)O1)NC1CCC1`, the cytotoxicity call in the experiment with HSkMC and in the experiment on HepG2 was “inactive” in each case. Further, the growth inhibition call in the experiment on S. aureus RN4220 is “inactive”.
